The list shows a part of the results. Repeats are few or missing, and single values can be far off.
Experiments:
Assay in all cases: cell count relative to DMSO control; melanoma cells; higher = more viable cells
Conditions in all cases: library dose: low library concentration; 72 h
WM115 = test system: WM115
WM1716 = test system: WM1716
WM1745 = test system: WM1745
WM3526 = test system: WM3526
WM3619 = test system: WM3619
WM451Lu = test system: WM451Lu
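Further: cell number obtained by counting DAPI-stained nuclei in high-throughput microscope images with image analysis software, screen run in 1,536-well plates.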

| Compound | cell count (WM115) [%] | cell count (WM1716) [%] | cell count (WM1745) [%] | cell count (WM3526) [%] | cell count (WM3619) [%] | cell count (WM451Lu) [%] |
| --- | --- | --- | --- | --- | --- | --- |
| Cc1cc(Nc2cc(N3CCN(C)CC3)nc(Sc3ccc(NC(=O)C4CC4)cc3)n2)n[nH]1 [Tozasertib] + CN(NC(=O)CC(=O)NN(C)C(=S)c1ccccc1)C(=S)c1ccccc1 [STA4783] (first compound 0.006 µM, partner dose 0.006 µM) | 74.7 | 56.6 | 55.6 | 98.9 | 69.3 | 96.4 |
| Cc1cc(Nc2cc(N3CCN(C)CC3)nc(Sc3ccc(NC(=O)C4CC4)cc3)n2)n[nH]1 [Tozasertib] + O=C(CCCCCCC(=O)Nc1ccccc1)NO [vorinostat] (first compound 0.006 µM, partner dose 0.08 µM) | 86.7 | 101 | 91.2 | 83.1 | 86.6 | 70.4 |
| CC[C@]1(O)C[C@H]2CN(CCc3c([nH]c4ccccc34)[C@@](C(=O)OC)(c3cc4c(cc3OC)N(C=O)[C@H]3[C@@](O)(C(=O)OC)[C@H](OC(C)=O)[C@]5(CC)C=CCN6CC[C@]43[C@@H]65)C2)C1 [vincristine] + Clc1ccc(Nc2nnc(Cc3ccncc3)c3ccccc23)cc1 [vatalanib] (first compound 0.0001 µM, partner dose 2 µM) | 38.2 | 41.5 | 68.9 | 49.8 | 44.5 | 51 |
| CC[C@]1(O)C[C@H]2CN(CCc3c([nH]c4ccccc34)[C@@](C(=O)OC)(c3cc4c(cc3OC)N(C=O)[C@H]3[C@@](O)(C(=O)OC)[C@H](OC(C)=O)[C@]5(CC)C=CCN6CC[C@]43[C@@H]65)C2)C1 [vincristine] + Cn1nnc2c(C(N)=O)ncn2c1=O [temozolomide] (first compound 0.0001 µM, partner dose 2 µM) | 50.7 | 42.9 | 94 | 66.1 | 59.9 | 52.8 |
| CC[C@]1(O)C[C@H]2CN(CCc3c([nH]c4ccccc34)[C@@](C(=O)OC)(c3cc4c(cc3OC)N(C=O)[C@H]3[C@@](O)(C(=O)OC)[C@H](OC(C)=O)[C@]5(CC)C=CCN6CC[C@]43[C@@H]65)C2)C1 [vincristine] + O=C(O)[C@@H]1[O][Sb](=[O])([O][Sb]2(=[O])[O][C@H]([C@H](O)CO)[C@H](O)[C@H](C(=O)O)[O]2)[O][C@H]([C@H](O)CO)[C@@H]1O [stibogluconate] (first compound 0.0001 µM, partner dose 2 µM) | 88.4 | 67.8 | 120 | 96.5 | 95.6 | 67.1 |
| Cc1cc(Nc2cc(N3CCN(C)CC3)nc(Sc3ccc(NC(=O)C4CC4)cc3)n2)n[nH]1 [Tozasertib] + COc1ccc2c(c1)CCC1C2CCC2(C)C(NCCCCCCN3C(=O)C=CC3=O)CCC12 [U73122] (first compound 0.006 µM, partner dose 0.4 µM) | 87.2 | 77.6 | 90.8 | 87.5 | 114 | 92.7 |
| N#CC[C@H](C1CCCC1)n1cc(-c2ncnc3[nH]ccc23)cn1 [ruxolitinib] + Cc1ccc(NC(=O)c2cccc(N(C)C)c2)cc1NC(=O)c1ccc(O)cc1 [ZM336372] (first compound 1 µM, partner dose 2 µM) | 109 | 108 | 87.4 | 102 | 98.3 | 86.2 |
| CC[C@]1(O)C[C@H]2CN(CCc3c([nH]c4ccccc34)[C@@](C(=O)OC)(c3cc4c(cc3OC)N(C=O)[C@H]3[C@@](O)(C(=O)OC)[C@H](OC(C)=O)[C@]5(CC)C=CCN6CC[C@]43[C@@H]65)C2)C1 [vincristine] + Cc1cc([N+](=O)[O-])ccc1NS(=O)(=O)c1cc(Cl)ccc1Cl [FH535] (first compound 0.0001 µM, partner dose 1 µM) | 37.2 | 33.3 | 64 | 48.4 | 43.4 | 50.3 |
| N#CC[C@H](C1CCCC1)n1cc(-c2ncnc3[nH]ccc23)cn1 [ruxolitinib] + CS(=O)(=O)CCNCc1ccc(-c2ccc3ncnc(Nc4ccc(OCc5cccc(F)c5)c(Cl)c4)c3c2)o1 [lapatinib] (first compound 1 µM, partner dose 0.8 µM) | 123 | 104 | 111 | 116 | 93.2 | 74.8 |
| CC[C@]1(O)C[C@H]2CN(CCc3c([nH]c4ccccc34)[C@@](C(=O)OC)(c3cc4c(cc3OC)N(C=O)[C@H]3[C@@](O)(C(=O)OC)[C@H](OC(C)=O)[C@]5(CC)C=CCN6CC[C@]43[C@@H]65)C2)C1 [vincristine] + C[C@]1(c2nc3c(C(N)=O)cccc3[nH]2)CCCN1 [Veliparib] (first compound 0.0001 µM, partner dose 1.4 µM) | 54.9 | 39.6 | 87.7 | 63.8 | 50.4 | 53.5 |
| N#CC[C@H](C1CCCC1)n1cc(-c2ncnc3[nH]ccc23)cn1 [ruxolitinib] + COC(=O)c1sccc1S(=O)(=O)Nc1ccc(Nc2ccccc2)cc1OC [GSK0660] (first compound 1 µM, partner dose 1 µM) | 124 | 109 | 99.5 | 111 | 101 | 111 |
| N#CC[C@H](C1CCCC1)n1cc(-c2ncnc3[nH]ccc23)cn1 [ruxolitinib] + Cn1c(=O)n(-c2ccc(C(C)(C)C#N)cc2)c2c3cc(-c4cnc5ccccc5c4)ccc3ncc21 [NVP-BEZ235] (first compound 1 µM, partner dose 0.004 µM) | 109 | 88.3 | 99.6 | 98.9 | 96.8 | 81.1 |
| CC[C@]1(O)C[C@H]2CN(CCc3c([nH]c4ccccc34)[C@@](C(=O)OC)(c3cc4c(cc3OC)N(C=O)[C@H]3[C@@](O)(C(=O)OC)[C@H](OC(C)=O)[C@]5(CC)C=CCN6CC[C@]43[C@@H]65)C2)C1 [vincristine] + O=C(Nc1cccc(Cl)c1)Nc1ncc(CCNc2ncnc3ccsc23)s1 [SNS314] (first compound 0.0001 µM, partner dose 0.0008 µM) | 41.7 | 50.3 | 80.8 | 68.9 | 60.8 | 71.4 |
| Cc1cc(Nc2cc(N3CCN(C)CC3)nc(Sc3ccc(NC(=O)C4CC4)cc3)n2)n[nH]1 [Tozasertib] + CNC(=O)c1cc(Oc2ccc(NC(=O)Nc3ccc(Cl)c(C(F)(F)F)c3)cc2)ccn1 [sorafenib] (first compound 0.006 µM, partner dose 0.4 µM) | 90.2 | 80.3 | 87.9 | 106 | 78.4 | 107 |
| CC[C@]1(O)C[C@H]2CN(CCc3c([nH]c4ccccc34)[C@@](C(=O)OC)(c3cc4c(cc3OC)N(C=O)[C@H]3[C@@](O)(C(=O)OC)[C@H](OC(C)=O)[C@]5(CC)C=CCN6CC[C@]43[C@@H]65)C2)C1 [vincristine] + Cn1c(=O)n(-c2ccc(C(C)(C)C#N)cc2)c2c3cc(-c4cnc5ccccc5c4)ccc3ncc21 [NVP-BEZ235] (first compound 0.0001 µM, partner dose 0.004 µM) | 43.9 | 44.1 | 87.4 | 78.8 | 81.5 | 56.3 |
| Cc1cc(Nc2cc(N3CCN(C)CC3)nc(Sc3ccc(NC(=O)C4CC4)cc3)n2)n[nH]1 [Tozasertib] + CCN(CC)CCCCNc1ncc2cc(-c3cc(OC)cc(OC)c3)c(NC(=O)NC(C)(C)C)nc2n1 [PD173074] (first compound 0.006 µM, partner dose 0.1 µM) | 91.9 | 93.7 | 71.9 | 78.2 | 82.8 | 95.5 |
| Cc1cc(Nc2cc(N3CCN(C)CC3)nc(Sc3ccc(NC(=O)C4CC4)cc3)n2)n[nH]1 [Tozasertib] + COc1cc(N2CCC(N3CCN(C)CC3)CC2)ccc1Nc1ncc(Cl)c(Nc2ccccc2S(=O)(=O)C(C)C)n1 [NVP-TAE684] (first compound 0.006 µM, partner dose 0.08 µM) | 87.6 | 89.6 | 73.4 | 82.7 | 88.8 | 93.8 |
| N#CC[C@H](C1CCCC1)n1cc(-c2ncnc3[nH]ccc23)cn1 [ruxolitinib] + CC1(C)CCC(c2ccc(Cl)cc2)=C(CN2CCN(c3ccc(C(=O)NS(=O)(=O)c4ccc(N[C@H](CCN5CCOCC5)CSc5ccccc5)c(S(=O)(=O)C(F)(F)F)c4)cc3)CC2)C1 [ABT263] (first compound 1 µM, partner dose 0.4 µM) | 95.6 | 88 | 23.7 | 90.1 | 79.6 | 70.6 |
| CC[C@]1(O)C[C@H]2CN(CCc3c([nH]c4ccccc34)[C@@](C(=O)OC)(c3cc4c(cc3OC)N(C=O)[C@H]3[C@@](O)(C(=O)OC)[C@H](OC(C)=O)[C@]5(CC)C=CCN6CC[C@]43[C@@H]65)C2)C1 [vincristine] + COc1ccc(C2=N[C@@H](c3ccc(Cl)cc3)[C@@H](c3ccc(Cl)cc3)N2C(=O)N2CCNC(=O)C2)c(OC(C)C)c1 [Nutlin-3] (first compound 0.0001 µM, partner dose 0.1 µM) | 45.7 | 38.2 | 69.2 | 58.5 | 42.9 | 52.8 |
| CC[C@]1(O)C[C@H]2CN(CCc3c([nH]c4ccccc34)[C@@](C(=O)OC)(c3cc4c(cc3OC)N(C=O)[C@H]3[C@@](O)(C(=O)OC)[C@H](OC(C)=O)[C@]5(CC)C=CCN6CC[C@]43[C@@H]65)C2)C1 [vincristine] + NC1(c2ccc(-c3nc4ccn5c(=O)[nH]nc5c4cc3-c3ccccc3)cc2)CCC1 [MK2206] (first compound 0.0001 µM, partner dose 0.4 µM) | 36 | 39.2 | 83.7 | 54.8 | 44 | 49 |
| Cc1cc(Nc2cc(N3CCN(C)CC3)nc(Sc3ccc(NC(=O)C4CC4)cc3)n2)n[nH]1 [Tozasertib] + Nc1cccc2c1CN(C1CCC(=O)NC1=O)C2=O [lenalidomide] (first compound 0.006 µM, partner dose 1 µM) | 83.5 | 93.1 | 81.7 | 92.5 | 95.6 | 104 |
| N#CC[C@H](C1CCCC1)n1cc(-c2ncnc3[nH]ccc23)cn1 [ruxolitinib] + C=CCn1c(=O)c2cnc(Nc3ccc(N4CCN(C)CC4)cc3)nc2n1-c1cccc(C(C)(C)O)n1 [MK1775] (first compound 1 µM, partner dose 0.02 µM) | 88.2 | 94.5 | 78.6 | 97 | 117 | 69.1 |
